Test results: the RNAGym collection of RNA variant scans (doi:10.7554/elife.90254)
The source gives no read counts; variants with many changes may rest on few reads.

B1: LINE1-mini (parent)
chain: GGCAGAGCUCAACACAGCGUGGCAAAGUGGCUGUGGCUAGACUGCC

Variants of: B1
Experiment: self-cleavage, relative activity (ratio to wild type); higher = more cleavage; in vitro, sequencing; the parent is a self-cleaving ribozyme

Variant | self-cleavage
G22C C23A G27C | 0.26
C3U G30C C46A | 0.11
A12U G19A U28C U32A G36A U43C | 0.02
G5U U28G G29U | 0.2
A12C A14G G21U | 0
A4C G5A G29U | 0.06
G1C G21U G29U C42A | 0.01
C8A C10U C13A G17C G40U | 0.05
G5A G7A C18A | 0.52
G22U G30U C42U | 0.33
A4U G17A G22A G27U G36U | 0.15
G1A A4C A6C U9G | 0.05
G1U C3G C13A C37A C45U | 0.25
A4G G21A C45G | 0.11
G1C A4G C15A A24U U34A | 0.03
A4G A16U C18G | 0.06
C3U A14U A26U G36U A41G G44C | 0.04
G2C C23G G27U U34A | 0.09
C10A A24C G35A | 0.02
C8U U9G A11U G27A U28G A41C | 0.01
A6G G21U G29C A41C | 0.08
A4G A12G A14G C18U | 0.27
C23U U32G C37G G40U | 0.04
U32G U38A A41G | 0.11
G5U A6G G30C | 0.07

Variant | self-cleavage
G21U A24G C37U | 0.03
G2C G35U C45U | 0.03
C3A A4U A12G C13U C31U U34C C46G | 0.02
A4C G5A G22A | 0.05
C10A G29U A41G G44A | 0.01
A6G G7A U28A | 0.06
G5C G7A U9C G17C C42G | 0.02
A6G C18A U28G G44U | 0.05
G2A G21A A25G | 2.71
G1C A25C G36C | 0
G7A G36U G44C | 0.1
C3A G5U C15G C45G | 0.01
A12U C23U G27C C37U A39C | 0.01
G2C G17U G30U U32C | 0.24
A12C C13G G33C | 0.02
A6C A11C A41U | 0.07
A12C U20C G21C U32G C45A | 0.01
G2A C8G G33U | 0.03
G1C A12C C37A G44A C46A | 0
A4C A12G U28G C45A | 0.01
G17U G30A U32C C42U | 0.04
G22C G27C G44C | 0.13
U9G G35U C42A | 0.02
A11G A14U A16U | 0.03
A6G A12U C15G | 0.01

Variant | self-cleavage
C3U G21C G36A U38C | 0.07
G1C A6G G17A U20A A26G | 0.01
G5U C10A C45G | 0
C10G G17U C18U | 0.05
C13A A16U G17A G30C C37A | 0.06
G2U A4C C15U G22C C23U | 0.08
C18U C23U G40A A41U | 0.02
C3U A4G A41G | 0.01
G17U A41U C46U | 0.04
G5A C10A G21U | 0.03
A6U C8U G36U | 0.68
C3G G5C C13A U20G U34G | 0.04
A6C C37G C46G | 0.04
A14C C18A U43A | 0.01
C3A C13U C15A | 0.31
C3G C23A A25G G30A U34A C37U G44A | 0
C3G C23G C46U | 0.2
C8A C23A G40U G44C | 0.09
G17U G19C U38C | 0.18
A12C C15A C23G A41G | 0
C15G G35U G36A C37A G44U | 0.01
G1U A4U A25U | 0.18
U20A A41U C45A | 0.11
G21C A24C U43C | 0.12
G17U C31U U32G U38G | 0.01

Variant | self-cleavage
A12U G36C U43C | 0
C31G U38C G40U | 0.07
A12U G22U A26U U38A | 0.13
C3G A6G A11U | 0
C10A G30U U43A | 0.01
C13U A14C G17A A25U G29U | 0.02
A4U C8A C13G A16C G29U U32G | 0.06
G5A C18U G35A | 0.29
G1U A6U A11U A16C G30A G35A | 0
A12C C13U A41C | 0
A4G G17U C46A | 0.23
C10U U20A U38C | 0.18
C8A A12C C46G | 0.01
A6C G7U C8A A25U G29C | 0.02
C3U G19U A26C G35C | 0.2
G27C U34G C42G | 0.03
G5A A12U C23U G33C | 0.01
C3A A4U A6G C46A | 0.08
U9C G29A A39U | 0.09
A16U G17C C23A G29A | 0.15
A12G C31A C42U | 0.07
C3A A12U C15A | 0.23
G1U C18G C46U | 0.7
G21U G27A G36U | 0.08
A25G U28G G30U G35U C37A C45U | 0.02

Variant | self-cleavage
A16G C18A A25G | 0.04
C3A C8A C15U G21A | 2.89
C8A C10A C15U A16U A25G G44A | 0.06
C8A U9A U20C | 0.07
G21U G35C G40A | 0.03
G5A G22A G27U | 0.18
C8A G19A G27U A41U U43C G44U C45G | 0.01
A26U G35C A41C | 0.03
C10U A12G A16C U32C | 0.07
G1U G5U A6C G7U C10A U34G | 0.02
G7A C10A G17A G22U G40C U43C | 0.02
G17U G21A C23A | 0.13
C8A A14C A26G G35U C42U | 0.13
A6U A12C A41U U43A | 0.03
G1U C15U C18G C23G U34A U43C | 0.01
G2U C15A G33U | 0.07
C10A U28G G30C | 0.04
C13A U28C G35C G36U C45G | 0.03
G2C C3A A6G G17U G19A G27C C46A | 0.06
A6G U34C C46A | 0.04
C8U G21C G36A C37A | 0.48
G2U G19A C37U | 0.07
G35C G36U U43C | 0.04
